B1: GLP-1RA/FGF21 Fc fusion protein SEQ ID NO: 221 (Fc fusion)
chain: GHGEGTFTSDKSKQLEEEAVRLFIEWLKAGPAPAPAEAAAKEAAAKPAPAPA[… human IgG1 Fc with changes …]GGGSGSAHPIPDSSPLLQFGGQVRQRYLYTDDACQTEAHLEIREDGTVGGAADQSPESLLQLKALKPGVIQILGVKTSRFLCQRPDGALYGSLHFDPEACSFRELLLEDGYNVYQSEAHGLPLHLPGCKSPHRDPAPRGPARFLPLPGLPPAPPEPPGILAPQPPDVGSSDPLSMVYPSQGRSPSYAS
B2: GLP-1RA/FGF21 Fc fusion protein SEQ ID NO: 226 (Fc fusion)
chain: GHGEGTFTSDKSKQLEEEAVRLFIEWLKAGGPKKIRYSPAPAPAEAAAKEAAAKPAPAPA[… human IgG1 Fc with changes …]GGGSGSAHPIPDSSPLLQFGGQVRQRYLYTDDACQTEAHLEIREDGTVGGAADQSPESLLQLKALKPGVIQILGVKTSRFLCQRPDGALYGSLHFDPEACSFRELLLEDGYNVYQSEAHGLPLHLPGCKSPHRDPAPRGPARFLPLPGLPPAPPEPPGILAPQPPDVGSSDPLSMVYPSQGRSPSYAS
B3: GLP-1RA/FGF21 Fc fusion protein SEQ ID NO: 29 (Fc fusion)
chain: HGEGTFTSDLSILLDEEAVREFIEWLLATGPVSGAPPPSGGGGGGGSGGGGSGGGGSA[… human IgG4 Fc with changes …]GGGSGSAHPIPDSSPLLQFGGQVRQRYLYTDDACQTEAHLEIREDGTVGGAADQSPESLLQLKALKPGVIQILGVKTSRFLCQRPDGALYGSLHFDPEACSFRELLLEDGYNVYQSEAHGLPLHLCGNKSPHRDPAPRGPARFLPLPGLPPAPPEPPGILAPQPPDVGSSDPLSMVYPSQGRSPSYAS
B4: GLP-1RA/FGF21 Fc fusion protein SEQ ID NO: 31 (Fc fusion)
chain: HGEGTFTSDLSILLDEEAVREFIEWLLATGPVSGAPPPSGGGGGGGSGGGGSGGGGSA[… human IgG4 Fc with changes …]GGGSGSAHPIPDSSPLLQFGGQVRQRYLYTDDACQTEAHLEIREDGTVGGAADQSPESLLQLKALKPGVIQILGVKTSRFLCQRPDGALYGSLHFDPEACSFRELLLEDGYNVYQSEAHGLPLHLPGCKSPHRDPAPRGPARFLPLPGLPPAPPEPPGILAPQPPDVGSSDPLSMVYPSQGRSPSYAS
B5: GLP-1RA/FGF21 Fc fusion protein SEQ ID NO: 45 (Fc fusion)
chain: HGEGTFTSDLSIQLDEEAVRLFIEWLEATGPVSGAPPPSGGGGGGGSGGGGSGGGGSA[… human IgG1 Fc with changes …]GGGSGSAHPIPDSSPLLQFGGQVRQRYLYTDDACQTEAHLEIREDGTVGGAADQSPESLLQLKALKPGVIQILGVKTSRFLCQRPDGALYGSLHFDPEACSFRELLLEDGYNVYQSEAHGLPLHLPGCKSPHRDPAPRGPARFLPLPGLPPAPPEPPGILAPQPPDVGSSDPLSMVYPSQGRSPSYAS
B6: GLP-1RA/FGF21 Fc fusion protein SEQ ID NO: 30 (Fc fusion)
chain: HGEGTFTSDLSILLDEEAVREFIEWLLATGPVSGAPPPSGGGGGGGSGGGGSGGGGSA[… human IgG4 Fc with changes …]GGGSGSAHPIPDSSPLLQFGGQVRQRYLYTDDACQTEAHLEIREDGTVGGAADQSPESLLQLKALKPGVIQILGVKTSRFLCQRPDGALYGSLHFDPEACSFRELLLEDGYNVYQSEAHGLPLHLPGCKSPHRDPAPRGPARFLPLPGLPPAPPEPPGILAPQPPDVGSSDPLSMVGSQGRSPSYAS
B7: GLP-1RA/FGF21 Fc fusion protein SEQ ID NO: 43 (Fc fusion)
chain: HGEGTFTSDLSILLDEEAVRLFIEWLLATGPVSGAPPPSGGGGGGGSGGGGSGGGGSA[… human IgG1 Fc with changes …]GGGSGSAHPIPDSSPLLQFGGQVRQRYLYTDDACQTEAHLEIREDGTVGGAADQSPESLLQLKALKPGVIQILGVKTSRFLCQRPDGALYGSLHFDPEACSFRELLLEDGYNVYQSEAHGLPLHLPGCKSPHRDPAPRGPARFLPLPGLPPAPPEPPGILAPQPPDVGSSDPLSMVGSQGRSPSYAS
B8: GLP-1RA/FGF21 Fc fusion protein SEQ ID NO: 42 (Fc fusion)
chain: HGEGTFTSDLSIQLDEEAVRLFIEWLLATGPVSGAPPPSGGGGGGGSGGGGSGGGGSA[… human IgG1 Fc with changes …]GGGSGSAHPIPDSSPLLQFGGQVRQRYLYTDDACQTEAHLEIREDGTVGGAADQSPESLLQLKALKPGVIQILGVKTSRFLCQRPDGALYGSLHFDPEACSFRELLLEDGYNVYQSEAHGLPLHLPGCKSPHRDPAPRGPARFLPLPGLPPAPPEPPGILAPQPPDVGSSDPLSMVGSQGRSPSYAS
B9: GLP-1RA/FGF21 Fc fusion protein SEQ ID NO: 224 (Fc fusion)
chain: GHGEGTFTSDKSKQLEEEAVRLFIEWLKAGGPKKIRYS[… human IgG1 Fc with changes …]GGGSGSAHPIPDSSPLLQFGGQVRQRYLYTDDACQTEAHLEIREDGTVGGAADQSPESLLQLKALKPGVIQILGVKTSRFLCQRPDGALYGSLHFDPEACSFRELLLEDGYNVYQSEAHGLPLHLPGCKSPHRDPAPRGPARFLPLPGLPPAPPEPPGILAPQPPDVGSSDPLSMVYPSQGRSPSYAS
B10: GLP-1RA/FGF21 Fc fusion protein SEQ ID NO: 194 (Fc fusion)
chain: HGEGTFTSDLSKQLEKELVRLFYEWLINGGHKSGKPPPKGGGGGGGSGGGGSGGGGSA[… human IgG4 Fc with changes …]GGGSGSAHPIPDSSPLLQFGGQVRQRYLYTDDACQTEAHLEIREDGTVGGAADQSPESLLQLKALKPGVIQILGVKTSRFLCQRPDGALYGSLHFDPEACSFRELLLEDGYNVYQSEAHGLPLHLPGCKSPHRDPAPRGPARFLPLPGLPPAPPEPPGILAPQPPDVGSSDPLSMVGSQGRSPSYAS
B11: GLP-1RA/FGF21 Fc fusion protein SEQ ID NO: 228 (Fc fusion)
chain: GHGEGTFTSDKSKQLEEEAVRLFIEWLKAGGPKKIRYSAEAAAKEAAAKEAAAKEAAKALEAEAAKEAAKEAAKEAAKAGGG[… human IgG1 Fc with changes …]GGGSGSAHPIPDSSPLLQFGGQVRQRYLYTDDACQTEAHLEIREDGTVGGAADQSPESLLQLKALKPGVIQILGVKTSRFLCQRPDGALYGSLHFDPEACSFRELLLEDGYNVYQSEAHGLPLHLPGCKSPHRDPAPRGPARFLPLPGLPPAPPEPPGILAPQPPDVGSSDPLSMVYPSQGRSPSYAS
B12: GLP-1RA/FGF21 Fc fusion protein SEQ ID NO: 223 (Fc fusion)
chain: GHGEGTFTSDKSKQLEEEAVRLFIEWLKAGGAEAAAKEAAAKEAAAKEAAKALEAEAAKEAAKEAAKEAAKAGGG[… human IgG1 Fc with changes …]GGGSGSAHPIPDSSPLLQFGGQVRQRYLYTDDACQTEAHLEIREDGTVGGAADQSPESLLQLKALKPGVIQILGVKTSRFLCQRPDGALYGSLHFDPEACSFRELLLEDGYNVYQSEAHGLPLHLPGCKSPHRDPAPRGPARFLPLPGLPPAPPEPPGILAPQPPDVGSSDPLSMVYPSQGRSPSYAS
B13: GLP-1RA/FGF21 Fc fusion protein SEQ ID NO: 225 (Fc fusion)
chain: GHGEGTFTSDKSKQLEEEAVRLFIEWLKAGGPKKIRYSPAPAPAPAPAPAGGG[… human IgG1 Fc with changes …]GGGSGSAHPIPDSSPLLQFGGQVRQRYLYTDDACQTEAHLEIREDGTVGGAADQSPESLLQLKALKPGVIQILGVKTSRFLCQRPDGALYGSLHFDPEACSFRELLLEDGYNVYQSEAHGLPLHLPGCKSPHRDPAPRGPARFLPLPGLPPAPPEPPGILAPQPPDVGSSDPLSMVYPSQGRSPSYAS
B14: GLP-1RA/FGF21 Fc fusion protein SEQ ID NO: 227 (Fc fusion)
chain: GHGEGTFTSDKSKQLEEEAVRLFIEWLKAGGPKKIRYSAEAAAKEAAAKEAAAKGGG[… human IgG1 Fc with changes …]GGGSGSAHPIPDSSPLLQFGGQVRQRYLYTDDACQTEAHLEIREDGTVGGAADQSPESLLQLKALKPGVIQILGVKTSRFLCQRPDGALYGSLHFDPEACSFRELLLEDGYNVYQSEAHGLPLHLPGCKSPHRDPAPRGPARFLPLPGLPPAPPEPPGILAPQPPDVGSSDPLSMVYPSQGRSPSYAS
B15: GLP-1RA/FGF21 Fc fusion protein SEQ ID NO: 220 (Fc fusion)
chain: GHGEGTFTSDKSKQLEEEAVRLFIEWLKAGGPAPAPAPAPAPAGGG[… human IgG1 Fc with changes …]GGGSGSAHPIPDSSPLLQFGGQVRQRYLYTDDACQTEAHLEIREDGTVGGAADQSPESLLQLKALKPGVIQILGVKTSRFLCQRPDGALYGSLHFDPEACSFRELLLEDGYNVYQSEAHGLPLHLPGCKSPHRDPAPRGPARFLPLPGLPPAPPEPPGILAPQPPDVGSSDPLSMVYPSQGRSPSYAS
B16: GLP-1RA/FGF21 Fc fusion protein SEQ ID NO: 222 (Fc fusion)
chain: GHGEGTFTSDKSKQLEEEAVRLFIEWLKAGGAEAAAKEAAAKEAAAKGGG[… human IgG1 Fc with changes …]GGGSGSAHPIPDSSPLLQFGGQVRQRYLYTDDACQTEAHLEIREDGTVGGAADQSPESLLQLKALKPGVIQILGVKTSRFLCQRPDGALYGSLHFDPEACSFRELLLEDGYNVYQSEAHGLPLHLPGCKSPHRDPAPRGPARFLPLPGLPPAPPEPPGILAPQPPDVGSSDPLSMVYPSQGRSPSYAS

Molecular target: T1, Mouse GLP-1R (mouse, UniProt O35659 22-463)
T1 sequence (looked up): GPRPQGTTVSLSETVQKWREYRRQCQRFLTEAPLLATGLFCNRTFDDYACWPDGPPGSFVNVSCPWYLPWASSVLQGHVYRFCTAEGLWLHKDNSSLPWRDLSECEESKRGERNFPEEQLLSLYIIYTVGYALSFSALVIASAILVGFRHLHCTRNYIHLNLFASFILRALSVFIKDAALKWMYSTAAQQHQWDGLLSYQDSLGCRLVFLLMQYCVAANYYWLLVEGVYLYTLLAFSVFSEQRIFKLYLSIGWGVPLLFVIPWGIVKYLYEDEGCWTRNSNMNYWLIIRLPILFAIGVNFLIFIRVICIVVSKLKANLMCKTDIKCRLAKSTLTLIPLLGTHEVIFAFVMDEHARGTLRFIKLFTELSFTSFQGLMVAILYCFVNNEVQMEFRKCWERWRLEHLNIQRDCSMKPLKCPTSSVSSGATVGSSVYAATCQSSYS
Test: cell-based or functional assay

In order of falling “HTRF cAMP EC50” value:
1. B5  492 pM
2. B9  251 pM
3. B16  200 pM
4. B1  162 pM
5. B10  129 pM
6. B6  125 pM
7. B3  113 pM
8. B4  113 pM
9. B15  110 pM
10. B12  79.5 pM
11. B13  61.6 pM
12. B2  43.5 pM
13. B8  43.2 pM
14. B14  40.8 pM
15. B7  31.5 pM
16. B11  30.1 pM

Molecular target: Monkey GLP-1R (monkey)
Test: cell-based or functional assay

In order of falling “HTRF cAMP EC50” value:
1. B10  140 pM
2. B6  73.3 pM
3. B3  64 pM
4. B4  62.8 pM
5. B5  60.4 pM
6. B8  22.2 pM
7. B7  17.4 pM

Molecular target: human glucagon-like peptide-1 (GLP-1) receptor (human, UniProt P43220 24-463)
Test: cell-based or functional assay

In order of falling “HTRF cAMP EC50” value:
1. B16  327 pM
2. B9  227 pM
3. B1  202 pM
4. B13  128 pM
5. B15  95.5 pM
6. B12  80.8 pM
7. B2  64.1 pM
8. B14  61.4 pM
9. B11  49.2 pM
10. B5  48.2 pM
11. B6  42 pM
12. B3  37.7 pM
13. B4  32.3 pM
14. B8  18.1 pM
15. B7  13.7 pM

Reference: patent US20230250147A1 (Sanofi, published 2023)
